The campaign covered roughly 48,000 compounds. About 550 (1.1%) were called active. Another 4% or so got no clear call; they are omitted. No stated cut-off is given here; in the data, active means potency below about 15 µM; inconclusive means mostly about 16 µM to 33 µM; inactive means weaker than that. Some of the results follow.

Experimental findings from PubChem BioAssay AID360 (National Center for Advancing Translational Sciences (NCATS), 2006) are described below.
Potency means the concentration at half of the fitted maximal effect.

The test concerns the target Lysosomal acid glucosylceramidase (Homo sapiens) (UniProt P04062). As to the kind of experiment: Glucocerebrosidase.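 Further: the screen sought inhibitors.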 The following applies: purified enzyme, resorufin glucoside fluorescence (screen aimed at inhibitors), 20 min. The method, boiled down: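 Compounds titrated against 0.2 nM normal enzyme, 30 uM resorufin beta-D-glucopyranoside substrate, citrate/phosphate buffer with taurocholate and tween-20, pH 5.9. Reaction ran 20 min at room temperature; fluorescence (Ex 548/Em 600) gave AC50.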
Sequence of UniProt P04062 (P04062 whole entry, looked up): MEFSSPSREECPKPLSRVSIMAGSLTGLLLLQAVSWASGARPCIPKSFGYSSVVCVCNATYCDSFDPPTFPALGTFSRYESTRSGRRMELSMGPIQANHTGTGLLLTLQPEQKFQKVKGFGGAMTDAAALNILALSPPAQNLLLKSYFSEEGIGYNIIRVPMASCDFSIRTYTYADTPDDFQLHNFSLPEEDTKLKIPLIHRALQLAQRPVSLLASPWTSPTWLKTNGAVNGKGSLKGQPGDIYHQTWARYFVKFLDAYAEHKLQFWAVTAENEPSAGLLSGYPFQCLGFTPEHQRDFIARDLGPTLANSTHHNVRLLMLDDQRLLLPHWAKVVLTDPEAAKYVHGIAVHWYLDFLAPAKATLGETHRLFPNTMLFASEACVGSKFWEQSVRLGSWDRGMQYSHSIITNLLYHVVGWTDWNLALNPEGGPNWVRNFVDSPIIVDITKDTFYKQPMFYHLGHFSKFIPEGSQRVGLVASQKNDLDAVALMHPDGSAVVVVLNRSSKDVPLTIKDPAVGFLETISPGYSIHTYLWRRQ
Consider `O=C(c1ccc(COc2c(F)c(F)c(F)c(F)c2F)o1)N1CCOCC1`, for which the Potency is inactive: > 76.9 µM.
To `CC(Sc1nc(N(C)C)nc(N2CCOCC2)n1)C(=O)Nc1ccccc1` (centres undefined) belongs inactive: > 76.9 µM.
As to `CCOC(=O)CNC(=O)c1cn(CC(C)C)c(=O)c2cc(OC)c(OC)cc12`, the Potency was inactive: > 76.9 µM.
In the case of `O=C(c1cccnc1)N(Cc1ccccc1)c1ccccc1` it was inactive: > 76.9 µM.
For the molecule `O=S(=O)(NCc1ccc(F)cc1)c1ccc2c(c1)OCCO2`, the Potency was inactive: > 76.9 µM.
To `CCCCn1c(NC(C)=O)c(C#N)c2nc3ccccc3nc21` belongs inactive: > 76.9 µM.
In the case of `CCN(CC)CCCN1C(=O)C(O)=C(C(C)=O)C1c1cccc(OC)c1` (centres undefined), the Potency is inactive: > 76.9 µM.
To `CN(CC(=O)NCc1cccs1)S(=O)(=O)c1cccc2nsnc12` belongs inactive: > 76.9 µM; to `Cc1ccc(NS(=O)(=O)c2cn(C)cn2)cc1`, inactive: > 76.9 µM.
On to `Cc1cccc2nc(C(F)(F)F)nc(=O)n12`, for which the Potency is inactive: > 76.9 µM.
Regarding `COc1ccccc1NC(=O)CN(Cc1ccco1)C(=O)c1cccs1`, the Potency was inactive: > 76.9 µM.
On to `Cn1nc(CC(=O)Nc2ccc3c(c2)CCC3)c2ccccc2c1=O`, for which the Potency was inactive: > 76.9 µM.
As to `CCCN(CCC(=O)Nc1cc(OC)cc(OC)c1)CC1CC1`, the Potency was inactive: > 76.9 µM.
For `N#Cc1nc(Cc2cccc3ccccc23)oc1NCc1ccco1`, the Potency was inactive: > 76.9 µM.
In the case of `CCOC(=O)c1ccc(NC(=O)COc2ccc(S(=O)(=O)NC(C)C)cc2)cc1`, the Potency was inactive: > 76.9 µM.
As to `O=S(=O)(c1cccc(-c2cn3cc(Cl)ccc3n2)c1)N1CCOCC1`, the Potency was inactive: > 76.9 µM.
With `COn1cnnc1-c1ccccc1`, the Potency was inactive: > 76.9 µM.
As to `CN(CC(=O)NCCN1CCCCCC1)S(=O)(=O)c1cccc2nsnc12`, the Potency is inactive: > 76.9 µM.
`CC1(C)Cc2cccc(OCC(=O)Nc3nccs3)c2O1`: the Potency was inactive: > 76.9 µM.
For `O=c1[nH]cnc2nn(-c3ccccc3)nc12`, the Potency was inactive: > 76.9 µM.
Regarding `COc1cc(OC)c(C2N(c3ccc(Cl)c(Cl)c3)C(=O)C3CCCN32)cc1OC` (centres undefined), the Potency was inactive: > 76.9 µM.
To `CCCCn1c2nc3ccccc3nc2c2c(=O)n(CCC)cnc21` belongs active: 5 µM; to `CC(C(=O)Nc1sccc1C(N)=O)N1C(=O)C2CC=CCC2C1=O` (centres undefined), inactive: > 76.9 µM.
Consider `CCOc1ccc(CCNC(=O)C2CCCN(S(=O)(=O)c3c(C)n[nH]c3C)C2)cc1OCC` (centres undefined), for which the Potency is inactive: > 76.9 µM.
For the molecule `Cc1ccc(-n2c(=O)c3sccc3n(CC(=O)N3CCCC3)c2=O)cc1`, the Potency was inactive: > 76.9 µM.
As to `CN1CCN(C(=O)c2cc3c(n(-c4ccccc4)c2=O)CC(C)(C)CC3=O)CC1`, the Potency was inactive: > 76.9 µM.
For `COc1cc(NC(=O)c2ccc3c(c2)OCO3)ccc1NC(=O)C(C)C`, the Potency is inactive: > 76.9 µM.
With `CC(C)[C@H](NC(=O)NCCc1ccc(F)cc1)C(=O)O`, the Potency is inactive: > 76.9 µM.
On to `Brc1ccccc1-c1nnc2sc(Cc3ccccc3)nn12`, for which the Potency is inactive: > 76.9 µM.
`CC(C)CC(=O)Nc1cccc(-c2nc3ccccc3o2)c1`: the Potency was inactive: > 76.9 µM.
`Oc1ccccc1N=Cc1ccc[nH]1`: the Potency was inactive: > 76.9 µM.
For the molecule `CCN(CC)c1nc2ccccc2n2cnnc12`, the Potency is inactive: > 76.9 µM.
In the case of `CCOC(=O)C1CCCN(C(=O)c2cc(Cl)ccc2Cl)C1` (centres undefined) it was inactive: > 76.9 µM; in that of `CCOC(=O)CCP(=O)(O)C(O)c1ccc(OC)cc1` (centres undefined), inactive: > 76.9 µM.
For the molecule `CN(Cc1ccccc1)C(=O)CCNC(=O)Cn1cnc2ccccc2c1=O`, the Potency is inactive: > 76.9 µM.
Consider `COc1ccc(N2C(=O)CCC(C(=O)N3CCC(C(N)=O)CC3)C2c2ccc(F)cc2)cc1` (centres undefined), for which the Potency was inactive: > 76.9 µM.
To `COCC(=O)Nc1nc(-c2ccccc2)c(C)s1` belongs inactive: > 76.9 µM; to `CCOC(=O)CSc1nnc(CNC(=O)c2ccc(OC)c(OC)c2)n1C`, inactive: > 76.9 µM; to `COc1ccccc1C(OC(=O)c1cccs1)C(=O)NCc1ccco1` (centres undefined), inactive: > 76.9 µM.
For `O=C(NCc1ccc(F)cc1)c1cc(S(=O)(=O)N2CCOCC2)ccc1F`, the Potency is inactive: > 76.9 µM.
With `O=c1cc(-c2ccccc2)[nH]c2nc3ccccc3n12`, the Potency is inactive: > 76.9 µM.
Regarding `CC(C)CC(NC(=O)C1CCC(C)CC1)C(=O)Nc1ccccn1` (centres undefined), the Potency was inactive: > 76.9 µM.
Regarding `Cc1cc(C(F)(F)F)nc(Nc2nc(C)c3ccccc3n2)n1`, the Potency was inactive: > 76.9 µM.
Consider `COCCn1c(SCC(=O)c2ccc3c(c2)OCCO3)nnc1-c1ccco1`, for which the Potency was inactive: > 76.9 µM.
On to `CCOC(=O)N1CCN(c2nc(-c3ccc(OC)cc3)no2)CC1`, for which the Potency is inactive: > 76.9 µM.
To `c1cnc2c(SCc3ccc(-c4nnco4)cc3)cccc2c1` belongs inactive: > 76.9 µM; to `O=S(=O)(c1ccc(S(=O)(=O)N2CCCC3(CCCCC3)C2)cc1)N1CCCCC1`, inactive: > 76.9 µM.
In the case of `COc1ccc(C(CNC(=O)COc2ccccc2C#N)N2CCOCC2)cc1` (centres undefined), the Potency is inactive: > 76.9 µM.
`COc1ccc(NC(=O)c2ccco2)cc1NC(=O)c1ccc(C)cc1`: the Potency was inactive: > 76.9 µM.
Consider `Cc1ccc(C)c(NC(=O)CS(=O)(=O)c2c[nH]c3ccccc23)c1`, for which the Potency result is “inactive”.
`COc1ccccc1N1CCN(CCCNC(=O)Nc2ccccc2C)CC1`: the Potency was inactive: > 76.9 µM.
For `Cc1ccc2c(c1)C(N1CCCC1=O)CC(c1ccco1)N2` (centres undefined), the Potency was inactive: > 76.9 µM.
Take `CCOC(=O)c1ccc(N2C(=O)c3n[nH]c(C)c3C2c2ccccc2)cc1` (centres undefined): the Potency is inactive: > 76.9 µM.
In the case of `Cc1cc(NC(=O)CCC(=O)N(CCC(C)C)C(C(=O)NC2CCCC2)c2cccnc2)no1` (centres undefined) it was inactive: > 76.9 µM.
As to `COCCSc1ccccc1C(=O)Nc1cc(C)on1`, the Potency is inactive: > 76.9 µM.
For `Cc1ccc2cc3cc(C(=O)N4CC(C)CC(C)C4)oc3nc2c1` (centres undefined), the Potency was inactive: > 76.9 µM.
For `CC(=O)Nc1c(C(=O)N2CCOCC2)sc2nc3c(cc12)COC(C)(C)C3`, the Potency was inactive: > 76.9 µM.
Consider `CCOC(=O)Cn1cc(C(=O)c2cccs2)c2ccccc21`, for which the Potency was inactive: > 76.9 µM.
`CS(=O)(=O)C1=C(O)C(=O)N(CCCC(=O)O)C1c1ccccc1F` (centres undefined): the Potency is inactive: > 76.9 µM.
